Test results from PubChem BioAssay AID1345082 (National Center for Advancing Translational Sciences (NCATS), 2018).
Among all 94,000 compounds or so, about 4,000 (4.3%) were called active. The inconclusive results got no clear call from the source; some entries with a clear call stand among them for comparison. Calls come from the whole dose curve; as a rule, active = well fitted inhibition curve with a large enough effect; inconclusive = small, poorly fitted or top-dose-only effect; inactive = no such curve, though single readings can be large or run the other way. Potencies beside an inconclusive call are fits to weak or partial responses and may not hold up.

test: Cytotoxic Profiling in NIH 3T3 Cell Line of Diverse Libraries Using Quantitative High-Throughput Screening; settings: NIH 3T3 viability, CellTiter-Glo ATP luminescence, 48-72 h; series mostly up to 96.7 µM; note: nearly all actives have a fitted effect of over 55% in size
Procedure, shortened: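 Luminescent ATP readout (CellTiter-Glo, 10 min RT) after 48 or 72 hr compound exposure of NIH 3T3 cells seeded at 400 cells/well in 1536-well format; quantitative HTS.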
Potency is the fitted concentration of half-maximal effect; tags give direction and shape of the fitted curve.

Compound | Potency
CC(C)(C)COC(=O)N1CC(=O)N(C2Cc3ccccc3C2)CC(O)C1 (stereo unspecified) | inconclusive: 25.1 µM [inhibitor, partial curve, poor fit]
O=C(NCCN1CCc2ccccc2C1)c1cccc2c1CCN2C(=O)C1CC1 | inconclusive: 39.8 µM [inhibitor, partial curve, poor fit]
NCCCC(=O)N1Cc2ccccc2CC2(CCCN(CC3CCOCC3)C2)C1 (stereo unspecified) | inconclusive: 70.8 µM [inhibitor, single point]
CCNC(=O)N1CC(c2noc(COc3ccc(OC)cc3)n2)C1 | inactive
CCOc1ccc(S(=O)(=O)N2CCC(C3CCN(C(C)=O)CC3)C2)cc1 (stereo unspecified) | inconclusive: 28.2 µM [inhibitor, partial curve, poor fit]
O=C1CC2(CCN(c3cnc4ccccc4n3)CC2)CN1CCCc1ccccc1 | inconclusive: 56.2 µM [inhibitor, partial curve, poor fit]
CC1(C(=O)Nc2ccccc2)COCc2cnc(Nc3ccccc3)nc21 (stereo unspecified) | inconclusive: 89.1 µM [inhibitor, partial curve]
COc1cccc(CNC(=O)c2cc(-c3ccc(F)cc3)nc3c2cnn3C)c1 | inconclusive: 31.6 µM [inhibitor, full curve, poor fit]
Cc1ccc(NC(=O)Nc2ccc(C)n(CC(=O)NC3CCCCC3)c2=O)cc1 | inconclusive: 50.1 µM [inhibitor, partial curve, poor fit]
O=C1OCC2(CCN(Cc3c[nH]c4ccccc34)C2)N1Cc1ccccc1 (stereo unspecified) | active: 89.1 µM
COc1cccc(CN2CCC(C(=O)N3CCCCCCNC(=O)CC3)CC2)c1 | inactive
Cc1ccc(-c2c(C(=O)N3CCOCC3)nc3sccn23)cc1 | inactive
O[C@H]1CC[C@@H](Cc2cc(COc3ccccc3)on2)O[C@@H]1CNC1CCOCC1 | inactive
CC(=O)Nc1ccc(CN(C)Cc2ccc(-c3ccccc3)cc2)cc1 | inconclusive: 50.1 µM [inhibitor, partial curve, poor fit]
O=C(c1ccc(F)cc1)N1CCCC2(CN[S+](=O)([O-])c3cccnc3N2)C1 (stereo unspecified) | inactive
COc1ccc2[nH]c3c(c2c1)CCNC31CCN(C(=O)c2ccc(OC)c(F)c2)CC1 | inconclusive: 31.6 µM [inhibitor, full curve]
COc1ccc(OCC2(C)COc3ccc(C(=O)N(C)Cc4ccccc4)cc3N2)cc1 (stereo unspecified) | inconclusive: 79.4 µM [inhibitor, partial curve, poor fit]
O=C(Cc1cccnc1)N1CCC(N2CC(OCC3CC3)C23CCCCC3)CC1 (stereo unspecified) | inactive
COC(=O)[C@@H]1Cc2ncn(C)c2CN1S(=O)(=O)c1ccc2ccccc2c1 | active: 79.4 µM
COc1ccc(OC2CCN(C(C)=O)CC2)c(C(=O)NCc2snnc2C)c1 | inconclusive: 50.1 µM [inhibitor, partial curve, poor fit]
COc1ccc(-c2cc(N3CCC(NC(=O)c4ccc(Cl)cc4)CC3)n[nH]2)cc1 | inconclusive: 44.7 µM [inhibitor, partial curve]

Compound | Potency
Cc1cc(C(=O)N2C[C@@H](COCC3CC3)[C@H](c3ccccn3)C2)c(C)o1 | inconclusive: 14.1 µM [inhibitor, full curve, poor fit]
COc1cccc(CN2CCCC(NC(=O)Nc3ccccc3OC)C2)c1 (stereo unspecified) | inactive
COCCNC(=O)c1cc(-c2ccc(Cl)nc2)nc2c1cnn2C | inconclusive: 56.2 µM [inhibitor, partial curve, poor fit]
CC(=O)Nc1cccc(-c2ncc3c(n2)OCCN(c2ccccc2)C3=O)c1 | active: 17.8 µM
CC(C)CNC(=O)C1CCN(Cc2ccccc2-c2cccnc2)CC1 | inactive
COc1ccc(CCNc2ncnc3c2CN(c2cccc(C)c2)C(=O)CN3C)cc1 | inconclusive: 50.1 µM [inhibitor, partial curve, poor fit]
COc1cccc(-c2cc(C3CCN(C(=O)Nc4cc(C)ccc4C)CC3)[nH]n2)c1 | inconclusive: 44.7 µM [inhibitor, partial curve, poor fit]
CCNC(=O)N1CCC(OC)c2ccccc2N(C)C(=O)C1 (stereo unspecified) | inconclusive: 50.1 µM [inhibitor, partial curve, poor fit]
CCC(=O)N1CCC(=O)N(CC)C2(CCOCC2)C1 | inactive
CC(C)CNc1ccc2c(n1)C(C)(C(=O)NC1CCOCC1)CN(Cc1ccccc1)C2 (stereo unspecified) | inconclusive: 35.5 µM [inhibitor, partial curve, poor fit]
O=C(NC1CCCN(c2cc(-c3ccccc3)[nH]n2)C1)c1ccc(Cl)cc1 (stereo unspecified) | inconclusive: 44.7 µM [inhibitor, partial curve, poor fit]
COc1ccc(-c2nc(N3CCOCC3)cc3c2CN(Cc2ccccc2)C3=O)cc1OC | inconclusive: 50.1 µM [inhibitor, partial curve, poor fit]
O=C1Nc2ccc(-c3ccccc3F)cc2C(=O)N2CCN(C(=O)C3CCCCC3)C[C@H]12 | inconclusive: 79.4 µM [inhibitor, single point]
Cc1ccccc1C(=O)N1CCCC2(C1)Nc1cccnc1NC2=NC1CCCC1 (stereo unspecified) | inactive
Cc1ccc(C2NC(=O)N(CC(=O)Nc3ccc(Br)c(C)c3)C3=C2C(=O)OC3)cc1 (stereo unspecified) | active: 35.5 µM
O=C(Nc1cccc(C(F)(F)F)c1)O[C@@H]1CO[C@H]2[C@@H]1OC[C@@H]2n1nnnc1SC1CCCC1 | active: 39.8 µM
Cc1nn(-c2ccccc2)c2c1C(C(C)C)N(C1CCCN(C(=O)c3ccccc3F)C1)C2=O (stereo unspecified) | inconclusive: 50.1 µM [inhibitor, partial curve, poor fit]
COc1ccccc1Nc1ccnc(N2CCN(C(=O)Nc3ccc(Cl)cc3)CC2)n1 | active: 39.8 µM
O=C(NC1CCCC1)N1CCCN(c2ccc3nnc(-c4ccccc4)n3n2)CC1 | inconclusive: 56.2 µM [inhibitor, partial curve, poor fit]
Cc1ccc(C(=O)NC2CCN(c3cnn(CC4CC4)c(=O)c3)CC2)cc1C | inactive
